{
  "source": "the supplement of paper PMC4166925",
  "note": "± gives the standard deviation of the averaged measurements. The full ranking holds about 33,000 sequences; the median of “E-score (dimensionless, -0.5 to 0.5)” is about -0.049, and the highest 2% start at about 0.37. Some of the results follow.",
  "data": [
    {"test_system": "T1, PmTbr T-box DNA-binding domain (GST fusion)", "T1 sequence": "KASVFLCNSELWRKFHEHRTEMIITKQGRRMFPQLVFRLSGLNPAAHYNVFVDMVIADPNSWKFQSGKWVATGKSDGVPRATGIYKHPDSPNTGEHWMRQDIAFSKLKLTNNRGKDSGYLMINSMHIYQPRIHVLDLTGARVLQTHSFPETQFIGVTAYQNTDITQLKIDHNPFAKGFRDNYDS", "assay": "PBM E-score of 8-mer (E-score (dimensionless, -0.5 to 0.5)); Tbr is Tbrain of the sea star Patiria miniata (Pm) or the sea urchin Strongylocentrotus purpuratus (Sp); higher = stronger binding preference; most listed sequences are background and not binding sites", "conditions": "the construct has about 5 more residues each side", "procedure,_shortened": "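GST-fused Tbr T-box DNA-binding domains (the whole T-box plus about five flanking residues) were expressed in BL21 E. coli at 20 °C and purified by glutathione affinity chromatography. Universal Agilent oligonucleotide arrays were made double-stranded by primer extension, incubated with 200 nM protein in PBS (pH 7.5), then scanned and quantified. Every ungapped 8-mer was scored from probe intensities. The Universal PBM Analysis Suite gave each word an enrichment E-score, averaged over duplicate arrays.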", "values": [
      {"sequence": "GACTTCTC", "PBM E-score of 8-mer": "0.148 ± 0.065"},
      {"sequence": "CATTGTCA", "PBM E-score of 8-mer": "0.301 ± 0.014"},
      {"sequence": "CGAAAGCA", "PBM E-score of 8-mer": "-0.135 ± 0.054"},
      {"sequence": "AGGTAGAC", "PBM E-score of 8-mer": "-0.137 ± 0.023"},
      {"sequence": "ATAGGGTC", "PBM E-score of 8-mer": "-0.279 ± 0.034"},
      {"sequence": "CAACGTGG", "PBM E-score of 8-mer": "-0.0277 ± 0.11"},
      {"sequence": "CCAACCCC", "PBM E-score of 8-mer": "-0.101 ± 0.018"},
      {"sequence": "ACCATTAC", "PBM E-score of 8-mer": "0.0428 ± 0.035"},
      {"sequence": "TGCACCCA", "PBM E-score of 8-mer": "-0.00473 ± 0.017"},
      {"sequence": "TATATCGA", "PBM E-score of 8-mer": "-0.0386 ± 0.027"},
      {"sequence": "GAGCGGAC", "PBM E-score of 8-mer": "-0.305 ± 0.019"},
      {"sequence": "ATTCACTA", "PBM E-score of 8-mer": "0.124 ± 0.028"},
      {"sequence": "GTGTACCA", "PBM E-score of 8-mer": "-0.0731 ± 0.0088"},
      {"sequence": "CCAGGACC", "PBM E-score of 8-mer": "-0.142 ± 0.037"},
      {"sequence": "CTCGCGTA", "PBM E-score of 8-mer": "0.15 ± 0.05"},
      {"sequence": "GATGTGGC", "PBM E-score of 8-mer": "0.117 ± 0.0081"},
      {"sequence": "GCGTCCCA", "PBM E-score of 8-mer": "0.0282 ± 0.0034"},
      {"sequence": "AAAGCCCT", "PBM E-score of 8-mer": "-0.193 ± 0.0078"},
      {"sequence": "TAGTATAA", "PBM E-score of 8-mer": "0.0737 ± 0.035"},
      {"sequence": "CGTAAGAC", "PBM E-score of 8-mer": "-0.27 ± 0.014"},
      {"sequence": "ATCTGGGG", "PBM E-score of 8-mer": "-0.107 ± 0.061"},
      {"sequence": "TGAAACAA", "PBM E-score of 8-mer": "0.122 ± 0.049"},
      {"sequence": "TACGCAGA", "PBM E-score of 8-mer": "-0.095 ± 0.084"},
      {"sequence": "AACCTCCG", "PBM E-score of 8-mer": "0.0421 ± 0.042"},
      {"sequence": "GGACAACC", "PBM E-score of 8-mer": "-0.163 ± 0.0029"},
      {"sequence": "CGAGGCCC", "PBM E-score of 8-mer": "-0.297 ± 0.064"},
      {"sequence": "CCCTGAGA", "PBM E-score of 8-mer": "-0.117 ± 0.086"},
      {"sequence": "ATCCATGC", "PBM E-score of 8-mer": "-0.0986 ± 0.0046"},
      {"sequence": "CCAACGTA", "PBM E-score of 8-mer": "-0.125 ± 0.084"},
      {"sequence": "AAGATCCG", "PBM E-score of 8-mer": "-0.0663 ± 0.054"},
      {"sequence": "GGTTTAGA", "PBM E-score of 8-mer": "-0.165 ± 0.012"},
      {"sequence": "ACTGTGCC", "PBM E-score of 8-mer": "-0.0429 ± 0.0065"},
      {"sequence": "CTAACGAC", "PBM E-score of 8-mer": "0.0678 ± 0.02"},
      {"sequence": "ACAGAGAC", "PBM E-score of 8-mer": "-0.0571 ± 0.00095"},
      {"sequence": "CGCTAAGC", "PBM E-score of 8-mer": "0.085 ± 0.066"},
      {"sequence": "AGGACTGA", "PBM E-score of 8-mer": "-0.103 ± 0.029"},
      {"sequence": "AGTCATTA", "PBM E-score of 8-mer": "0.027 ± 0.049"},
      {"sequence": "ACACTCGC", "PBM E-score of 8-mer": "0.352 ± 0.011"},
      {"sequence": "GTAGGTCA", "PBM E-score of 8-mer": "-0.0527 ± 0.062"},
      {"sequence": "CGGTGGTA", "PBM E-score of 8-mer": "-0.00583 ± 0.042"},
      {"sequence": "GCCAATCA", "PBM E-score of 8-mer": "-0.0356 ± 0.057"},
      {"sequence": "GAGGCAGC", "PBM E-score of 8-mer": "-0.161 ± 0.082"},
      {"sequence": "GAGTTGGA", "PBM E-score of 8-mer": "-0.0868 ± 0.0038"},
      {"sequence": "GACATCCA", "PBM E-score of 8-mer": "0.00494 ± 0.044"},
      {"sequence": "CATATCGC", "PBM E-score of 8-mer": "0.196 ± 0.059"},
      {"sequence": "GGGGGAAC", "PBM E-score of 8-mer": "-0.0958 ± 0.093"},
      {"sequence": "ACCTGCAC", "PBM E-score of 8-mer": "0.163 ± 0.056"},
      {"sequence": "GAAATTGC", "PBM E-score of 8-mer": "-0.0456 ± 0.013"},
      {"sequence": "GGTTACAC", "PBM E-score of 8-mer": "0.239 ± 0.044"},
      {"sequence": "AAACCACG", "PBM E-score of 8-mer": "-0.0687 ± 0.029"},
      {"sequence": "CCCGAGAC", "PBM E-score of 8-mer": "-0.136 ± 0.039"},
      {"sequence": "ATTTGACG", "PBM E-score of 8-mer": "0.171 ± 0.12"},
      {"sequence": "CCTCCCTC", "PBM E-score of 8-mer": "-0.195 ± 0.058"},
      {"sequence": "GCAACTCC", "PBM E-score of 8-mer": "0.227 ± 0.045"},
      {"sequence": "GAACCCAA", "PBM E-score of 8-mer": "-0.0433 ± 0.029"},
      {"sequence": "ATCAGATG", "PBM E-score of 8-mer": "0.0342 ± 0.053"},
      {"sequence": "GGATCTCA", "PBM E-score of 8-mer": "-0.101 ± 0.01"},
      {"sequence": "AATGCGGC", "PBM E-score of 8-mer": "-0.00328 ± 0.02"},
      {"sequence": "CGTGATAC", "PBM E-score of 8-mer": "0.177 ± 0.087"},
      {"sequence": "GTATGGGA", "PBM E-score of 8-mer": "-0.306 ± 0.0041"},
      {"sequence": "GCGCGAAC", "PBM E-score of 8-mer": "0.411 ± 0.017"},
      {"sequence": "ATTGTGCC", "PBM E-score of 8-mer": "0.0295 ± 0.034"},
      {"sequence": "CAAAGTCG", "PBM E-score of 8-mer": "-0.0635 ± 0.038"},
      {"sequence": "AGTGGTAG", "PBM E-score of 8-mer": "0.111 ± 0.066"},
      {"sequence": "ATGGTAGG", "PBM E-score of 8-mer": "0.0178 ± 0.038"},
      {"sequence": "ACCGAAAC", "PBM E-score of 8-mer": "-0.188 ± 0.013"},
      {"sequence": "TCCAACGA", "PBM E-score of 8-mer": "-0.0827 ± 0.02"},
      {"sequence": "CAGTACGA", "PBM E-score of 8-mer": "-0.164 ± 0.0049"},
      {"sequence": "CTAGATTA", "PBM E-score of 8-mer": "-0.0999 ± 0.051"},
      {"sequence": "CTTAGGGC", "PBM E-score of 8-mer": "-0.123 ± 0.038"},
      {"sequence": "CTACGCCC", "PBM E-score of 8-mer": "0.0283 ± 0.045"},
      {"sequence": "CTATAAAC", "PBM E-score of 8-mer": "-0.0338 ± 0.068"},
      {"sequence": "AACGGGAT", "PBM E-score of 8-mer": "-0.136 ± 0.014"},
      {"sequence": "TAGTTCGA", "PBM E-score of 8-mer": "0.16 ± 0.056"},
      {"sequence": "CCACCAGG", "PBM E-score of 8-mer": "-0.195 ± 0.069"},
      {"sequence": "AGTAGGGC", "PBM E-score of 8-mer": "-0.278 ± 0.072"},
      {"sequence": "ACCCTTTG", "PBM E-score of 8-mer": "-0.0701 ± 0.029"},
      {"sequence": "CGTTTTAC", "PBM E-score of 8-mer": "-0.0254 ± 0.085"},
      {"sequence": "GTGAGTAA", "PBM E-score of 8-mer": "0.242 ± 0.032"},
      {"sequence": "ACGTCGCC", "PBM E-score of 8-mer": "-0.0221 ± 0.011"},
      {"sequence": "GTCCTAAA", "PBM E-score of 8-mer": "-0.16 ± 0.06"},
      {"sequence": "ACCGGGGG", "PBM E-score of 8-mer": "-0.227 ± 0.097"},
      {"sequence": "ATTAAATC", "PBM E-score of 8-mer": "-0.127 ± 0.0058"},
      {"sequence": "ATTGATTA", "PBM E-score of 8-mer": "-0.0965 ± 0.0069"},
      {"sequence": "GTATAATA", "PBM E-score of 8-mer": "-0.244 ± 0.01"},
      {"sequence": "GTGTACAC", "PBM E-score of 8-mer": "-0.0175 ± 0.025"}
    ]}
  ]
}
